Over roughly 110,000 compounds, “z-score” has its median near -0.1; the highest 2% begin near 2. The list shows a part of the results. Activity calls are given as the source filed them.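 How the source made its calls: active means z-score in the third read window above 3 or below -3; inactive means the rest.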
The molecules below were run against Metabotropic glutamate receptor 8 (Rattus norvegicus) (UniProt P70579) (assay: mGluR8 Gi/Go-coupled signaling modulation – cell-based, rat, thallium flux, HTS, primary screen (AID 488969)). Settings: HEK293 rat mGluR8, GIRK (G protein-gated inwardly rectifying potassium channel) thallium flux, FluoZin2; at 10 µM; stronger effect = higher value; submaximal glutamate (EC20) added with thallium.
UniProt P70579, sequence (P70579 whole entry, looked up): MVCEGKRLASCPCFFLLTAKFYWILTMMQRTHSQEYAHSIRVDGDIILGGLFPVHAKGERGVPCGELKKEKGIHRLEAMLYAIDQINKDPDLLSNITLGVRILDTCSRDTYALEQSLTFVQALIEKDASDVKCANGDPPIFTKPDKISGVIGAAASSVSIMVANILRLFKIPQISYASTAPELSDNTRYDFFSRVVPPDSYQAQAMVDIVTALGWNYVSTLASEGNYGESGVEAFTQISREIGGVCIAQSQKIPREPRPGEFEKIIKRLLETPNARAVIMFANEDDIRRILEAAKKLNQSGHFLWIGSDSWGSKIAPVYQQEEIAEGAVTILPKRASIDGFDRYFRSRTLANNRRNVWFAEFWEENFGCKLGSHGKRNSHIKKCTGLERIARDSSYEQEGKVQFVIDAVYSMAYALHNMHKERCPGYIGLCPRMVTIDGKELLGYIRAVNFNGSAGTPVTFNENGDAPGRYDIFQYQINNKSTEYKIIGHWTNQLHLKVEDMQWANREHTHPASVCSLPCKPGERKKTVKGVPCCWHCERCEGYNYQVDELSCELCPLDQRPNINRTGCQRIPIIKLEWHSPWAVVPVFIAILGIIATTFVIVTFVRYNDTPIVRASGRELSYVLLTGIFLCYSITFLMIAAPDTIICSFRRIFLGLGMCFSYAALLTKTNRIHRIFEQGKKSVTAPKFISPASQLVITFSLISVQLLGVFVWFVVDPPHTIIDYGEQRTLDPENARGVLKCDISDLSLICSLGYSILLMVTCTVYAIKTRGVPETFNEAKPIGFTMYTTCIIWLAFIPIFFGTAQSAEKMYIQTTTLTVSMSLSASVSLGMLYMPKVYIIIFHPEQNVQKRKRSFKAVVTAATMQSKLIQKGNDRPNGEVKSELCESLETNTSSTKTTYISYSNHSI

Compound	z-score
O=C(CC1(O)C(=O)Nc2ccccc21)c1ccccc1O (stereo not drawn)	0.356
COc1ccc(C(=O)c2oc3ccc(Br)cc3c2NC(C)=O)cc1	0.111
CCC(Sc1nc2ccsc2c(=O)n1-c1ccc(Cl)c(C)c1)C(=O)NCc1ccco1 (stereo not drawn)	-0.35
CCOc1cc(N2CCOCC2)c(OCC)cc1NC(=O)COc1ncnc2ccccc12	-0.374
O=C(NCCc1c[nH]c2ccccc12)/C(=C\c1ccco1)NC(=O)c1ccco1	-0.11
COc1ccc(NC(=O)C2CCC(N3C(=O)C4C5C=CC(C5)C4C3=O)CC2)cc1 (stereo not drawn)	0.0102
CCC(Sc1nc(C)cc(C)n1)C(=O)Nc1ccc(Cl)cn1 (stereo not drawn)	-1.23
CCN(CC)C(=O)c1ccc2c3c(cccc13)C(=O)N(CCc1ccc(OC)c(OC)c1)C2=O	-0.143
COc1ccc(OC(=O)c2cccc(S(=O)(=O)N3CCCC3)c2)cc1	-0.172
Cc1ccc(C)c(S(=O)(=O)N/N=C/c2ccc(C(=O)O)cc2)c1	-0.168
CCN(CC)C(=O)CSc1nc2c(sc(=S)n2Cc2ccco2)c(=O)n1-c1ccccc1	-0.527
CCOC(=O)c1oc2ccc(OC)cc2c1NC(=O)CN1CCN(C)CC1	0.148
COc1ccccc1OCCOCCOc1c(C)cc(C)cc1Br	0.255
O=C(CS(=O)c1cccc(C(F)(F)F)c1)Nc1ccccc1Cl (stereo not drawn)	0.0123
O=c1c2c(nc3n1CCCCC3)-c1ccccc1CC21CCCC1	-0.184
COc1ccc(-c2nnc(SCC(=O)N3CCOCC3)o2)cc1	-0.0577
CCOC(=O)N1CCN(C(=O)c2ccc(NC(=O)c3ccc(C)cc3)cc2)CC1	-2.07
COC(=O)CSc1cnc2ccccc2n1	0.141
O=C(NCc1cccnc1)C1c2ccccc2C(=O)N1C1CCCCCCC1 (stereo not drawn)	-0.357
Cc1oc(C(C)(C)C)cc1C(=O)Nc1cccc(/C=C/C(=O)O)c1	-0.189
COc1cc(C2Nc3cc(Cl)c(S(N)(=O)=O)cc3S(=O)(=O)N2)ccc1OCc1ccccc1 (stereo not drawn)	-0.444
COc1ccccc1-c1nnc(NC(=O)c2cccc(N3C(=O)CCC3=O)c2)o1	-0.631

Compound	z-score
COc1ccccc1NC(=O)c1cc(Cl)ccc1NC(=O)c1ccco1	0.52
CC(=O)NC(C)c1ccc(Cl)c(Cl)c1 (stereo not drawn)	-0.488
COc1ccc(C(=O)Nn2c(SCC(=O)NCc3ccccc3)nc3ccccc3c2=O)cc1	0.0525
O=C(/C(=N\Nc1ccccc1)Sc1nnnn1-c1ccccc1)c1ccccc1	1.31
COc1cc(NC(=O)Cc2ccccc2OC)cc(OC)c1	-0.103
Cc1ccc(NC(=O)CN(C)C(=O)CCC(=O)c2cccs2)cc1	-0.496
COc1ccc(NC(=O)N2CCC(O)(c3cccnc3)CC2)c(OC)c1	0.26
Nc1ccc2c(c1)N1CCN=C1S2	-0.306
Cc1ccnc(N2CCC(C(=O)NNC(=O)c3ccccc3)CC2)n1	-0.22
CCS(=O)(=O)c1ccc(-c2csc(-c3ccccc3Cl)n2)c(Cl)c1Cl	0.0426
C=CCNc1nc(C)c(C(C)=O)cc1C#N	0.251
CSc1cnc2c(=O)n(C)c(=O)[nH]c2n1	1.28
Cc1nnc(SCC(=O)N2CCCCC2)n1CC1CCCO1 (stereo not drawn)	-0.112
COCCCn1c(SCc2nnc(-c3ccc(OC)c(OC)c3)o2)nnc1-c1ccncc1	0.348
CCOC(=O)c1nnn(-c2nonc2-n2cccc2)c1CN1CCOCC1	-0.0612
O=C(CSc1nnc(-c2ccc(Cl)cc2)n1Cc1ccco1)NCc1ccc2c(c1)OCO2	-0.262
N#CCSc1nc2c(c(C3CC=CCC3)c1C#N)CCC2 (stereo not drawn)	-0.591
Cc1cc(NC(=O)CSc2nnc(C3CC3)n2C)no1	0.713
O=C(NCc1cccnc1)c1cccc(Cl)c1	0.278
Cc1cc(C)n(-c2ccc3cccc(NS(C)(=O)=O)c3n2)n1	-0.35
Oc1c(Cl)cc(Cl)cc1/C=N/c1nccs1	-0.379
Cc1sc(NC(=O)C2CCCCC2)c(C#N)c1-c1ccccc1	0.0405

Compound	z-score
Cc1sc2ncn(CC(=O)NCC(=O)N(C)C3CCCCC3)c(=O)c2c1C	-0.0929
Cc1ccc(N2CCN(S(=O)(=O)N3CCCCC3)CC2)cc1Cl	-0.926
Cc1ccc2[nH]c(=O)c(C(c3nnnn3C(C)(C)C)N3CCN(C(=O)c4ccco4)CC3)cc2c1 (stereo not drawn)	-0.0115
N#CC(=C1CCCC1)c1nc(-c2ccc(Cl)cc2)cs1	0.112
O=C(Nc1cccc(S(=O)(=O)N2CCOCC2)c1)c1cn(-c2ccccc2)nc1-c1ccccc1	0.027
CCN(CC)CC(=O)Nc1nn(-c2ccccc2)nc1C(N)=O	-0.412
COc1ccc(CC(=O)Nc2nc(-c3cccnc3)cs2)cc1	-0.198
CCOc1ccc(N2C(=O)CSC2c2ccncc2)cc1 (stereo not drawn)	-0.186
CN1N=C(C(=O)N2CCN(c3ccc([N+](=O)[O-])cc3)CC2)CCC1=O	-0.226
COc1ccc(N(C)S(=O)(=O)c2cccc(C(=O)OCC(=O)Nc3sc4c(c3C#N)CCCCC4)c2)cc1	0.379
CN(CCC(=O)Nc1ccc2c(c1)OCO2)Cc1ccccc1	0.462
COc1ccc(NC(=O)CSc2n[nH]c(N)n2)c([N+](=O)[O-])c1	-0.122
Cc1nc2ccc(S(=O)(=O)NC(C(=O)N3CCCC3)C(C)C)cc2s1 (stereo not drawn)	-0.206
CC1Cc2cc(/C(O)=C3/C(=O)C(=O)N(CCCn4ccnc4)C3c3ccco3)ccc2O1 (stereo not drawn)	-0.193
Cc1c(C(=O)O)cccc1N1C(=O)Nc2ccccc2N1O	-0.0138
CCCCn1c(=NC(=O)c2cccnc2)c(C#N)cc2c(=O)n3cccc(C)c3nc21	-0.0906
Cc1ccc(NC(=O)COS(=O)c2ccc(C)cc2)cc1 (stereo not drawn)	0.165
CCOC(=O)N1CCC(NC(=O)Cn2ncc3c4ccccc4n(C)c3c2=O)CC1	0.0522
O=C(COC(=O)/C=C/c1cccs1)Nc1nc(-c2ccccc2)cs1	-0.207
Cc1cc(C)nc(NC(=O)CSc2nc3ccccc3s2)n1	-0.346
COc1cc(C2C(C#N)=C(N)N(c3cccnc3)C3=C2C(=O)CC(C)(C)C3)ccc1O (stereo not drawn)	0.483
CCOC(=O)C1C(=O)OC(C)(C)C1C(C)C(=O)c1ccc(C)cc1 (stereo not drawn)	0.545

Compound	z-score
COc1ccccc1CNC(=O)C1CC(c2cccc([N+](=O)[O-])c2)=NO1 (stereo not drawn)	-0.0624
COc1ccc(NC(=O)CN2CCC(C(N)=O)(N3CCCCC3)CC2)cc1	-0.0237
COC(=O)C(NC(=O)c1ccccc1)=C1C=C(C)OC(C)=C1	0.418
CC1(C)CC(=O)/C(=C(/O)Cc2ccccc2)C(=NCCc2ccccc2)C1	-0.788
Cn1c(SCC(=O)N(C2CCCCC2)C2CCCCC2)nnc1-c1cccs1	-0.304
CC(=O)N1CCN(Cc2nc3cc(NC(=O)Cn4nc(C)c5ccccc5c4=O)ccc3n2C)CC1	-0.472
COc1ccccc1NC(=O)C1CCCN(S(=O)(=O)c2cnc[nH]2)C1 (stereo not drawn)	0.0203
CCN1CCN(Cc2cccc(Oc3ccccc3)c2)CC1	0.156
COc1cccc(OCCCCCCN2CCOCC2)c1	-0.447
CCOC(=O)CSc1nc2ccccc2c(=O)n1CC1CCCC1	0.0494
CSCCC(NC(=O)c1cccc(S(=O)(=O)N2CCOCC2)c1)C(=O)Nc1cccc(C)c1 (stereo not drawn)	-0.00152
Cc1ccc(C(=O)N2CCc3ccccc32)cc1	0.0934
Cc1cc(=O)[nH]c(SCC(=O)N2CCN(C(c3ccccc3)c3ccccc3)CC2)n1	-0.0424
Cc1cccc(OCC(=O)Nc2ccc(S(=O)(=O)N3CCN(C)CC3)cc2)c1	0.101
CCNCc1cc(Br)c(OCC(=O)Nc2ccccc2)c(OC)c1	1.18
CCC(=C(c1ccc(OC)cc1)c1ccc(OC)cc1)c1cn(CC(O)CN2CCN(C)CC2)c2ccccc12 (stereo not drawn)	2.63
CCn1cc(C(=O)Nc2ccc(OC)c(S(=O)(=O)N3CCCCC3)c2)c(=O)c2ccc(C)nc21	0.769
N#Cc1cc2c(nc1SC1CCCCC1O)CCCC2 (stereo not drawn)	-1.1
COc1ccccc1C(=O)Nc1ccc(C(=O)O)cc1	0.328
C=CCOc1ccc(C(=O)N(Cc2ccc(N(C)C)cc2)C2CCS(=O)(=O)C2)cc1 (stereo not drawn)	-0.168
O=c1c2c(-c3ccc(Cl)cc3)csc2nc2n1CCC2	-0.149
O=C(N/N=C/c1cc2cc3c(cc2nc1Cl)OCCO3)c1ccccc1O	-0.293

Compound	z-score
CCN(CC)S(=O)(=O)c1ccc(NC(=O)CN(c2cccc(C)c2)S(C)(=O)=O)cc1	-0.189
N#C/C(=C(/O)COC(=O)COc1ccc(Cl)cc1)c1nc2ccccc2[nH]1	0.27
O=S(=O)(Nc1nc2ccccc2nc1Cl)c1ccc(Cl)cc1	-0.163
O=c1cc(-c2ccco2)nc(-c2cccs2)o1	-1.05
O=C(Nc1cccc(-c2nc3cccnc3s2)c1)c1ccco1	-0.395
CCOC(=O)c1nnn(CC(=O)Nc2cccc(F)c2)c1C(=O)OCC	0.299
CCOC(=O)C1=C(O)/C(=C/N(C)C)N=C1C	-0.937
COc1ccc(CC(=O)N(c2ccccc2)c2nc(C)cs2)cc1	-0.721
COc1nnc(-c2ccc(N3CCOCC3)c(NC(=O)C3CCCCC3)c2)c2ccccc12	-0.35
CCCNC(=O)N1CCC(C(=O)c2ccc(F)cc2)CC1	0.695
CC(C)(C)c1ccc(C(=O)NNC(=O)C2CCCCC2)cc1	0.0889
N#CCSc1nc2ccc(N3CCOCC3)cc2c(=O)n1CCc1ccccc1	active: 4.95
COc1cc(C2c3c(oc4ccccc4c3=O)C(=O)N2c2ccc(C)cn2)ccc1O (stereo not drawn)	-1.45
Cc1nc2cc(NC(=O)CSc3nc4c(C)cccc4cc3C#N)ccc2s1	-0.78
COc1ccc(OC)c(C2C(C(=O)Nc3nc4ccccc4s3)=C(C)NC3=C2C(=O)CCC3)c1 (stereo not drawn)	0.113
COc1ccc(Br)c(C(=O)NCCC(C)C)c1	-0.0271
CCOC(=O)C1C(=O)C=C(/C=C/c2ccccc2)CC1c1ccc(Cl)cc1 (stereo not drawn)	-0.123
CCOC(=O)c1csc(NC(=O)CSc2nnnn2-c2ccc(OC)c(OC)c2)n1	-0.0204
CCN(CC)S(=O)(=O)c1cccc(C(=O)OCC(=O)Nc2ccc3c(c2)c2ccccc2n3CC)c1	-0.289
Cc1ccc(Sc2cnn(-c3ccccc3)c(=O)c2Cl)cc1	-0.542

Reference: PubChem BioAssay AID488969 (Vanderbilt High Throughput Screening Facility, 2010)
